Data on 88 compounds can be found in publication PMC4336329 (PLoS ONE, 2015).

Hit rate of the full screen: of about 310,000 compounds, about 2,200 (0.71%) showed an effect of 50% or more. The effect is printed as a negative number. This is one part of the list.

In this test the target is human ether-à-go-go-related gene (hERG) potassium channel (human, UniProt Q12809). Nature of the test: primary screen, population patch clamp on CHO cells stably expressing hERG.
human ether-à-go-go-related gene (hERG) potassium channel, sequence (Q12809 whole entry, looked up): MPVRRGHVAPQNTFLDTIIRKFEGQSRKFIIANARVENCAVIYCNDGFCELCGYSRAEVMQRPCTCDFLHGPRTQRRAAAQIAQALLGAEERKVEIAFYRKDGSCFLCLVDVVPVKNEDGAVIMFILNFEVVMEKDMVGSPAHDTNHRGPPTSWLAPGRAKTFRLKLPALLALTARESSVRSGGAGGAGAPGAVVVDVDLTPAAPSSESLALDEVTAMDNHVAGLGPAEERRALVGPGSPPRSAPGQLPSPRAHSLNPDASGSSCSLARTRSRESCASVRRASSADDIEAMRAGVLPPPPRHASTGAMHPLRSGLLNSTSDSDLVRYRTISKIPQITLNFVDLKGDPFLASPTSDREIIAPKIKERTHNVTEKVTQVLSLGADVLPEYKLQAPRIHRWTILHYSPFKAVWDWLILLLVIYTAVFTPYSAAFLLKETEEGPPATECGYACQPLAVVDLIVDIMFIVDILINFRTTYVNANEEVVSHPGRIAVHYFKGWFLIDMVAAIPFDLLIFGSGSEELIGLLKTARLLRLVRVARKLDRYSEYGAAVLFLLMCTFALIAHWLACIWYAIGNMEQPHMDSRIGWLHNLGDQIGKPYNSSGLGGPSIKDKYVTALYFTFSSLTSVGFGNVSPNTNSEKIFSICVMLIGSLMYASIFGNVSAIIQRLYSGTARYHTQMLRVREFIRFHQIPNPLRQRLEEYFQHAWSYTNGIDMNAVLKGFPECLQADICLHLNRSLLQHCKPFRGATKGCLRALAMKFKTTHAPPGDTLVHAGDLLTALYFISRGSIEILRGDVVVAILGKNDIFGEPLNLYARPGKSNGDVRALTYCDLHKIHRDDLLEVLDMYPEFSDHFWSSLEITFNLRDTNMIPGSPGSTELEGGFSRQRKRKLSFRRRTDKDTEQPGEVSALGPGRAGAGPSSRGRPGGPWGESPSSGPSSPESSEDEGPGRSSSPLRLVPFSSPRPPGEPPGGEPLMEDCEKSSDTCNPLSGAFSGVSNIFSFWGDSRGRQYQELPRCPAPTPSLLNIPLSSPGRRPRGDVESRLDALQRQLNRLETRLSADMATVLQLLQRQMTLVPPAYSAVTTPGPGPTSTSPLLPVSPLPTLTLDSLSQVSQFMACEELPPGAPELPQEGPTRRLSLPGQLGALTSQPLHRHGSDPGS
As to `CC(C)[C@@H](C(=O)NCC1CCC(C(=O)O)CC1)n1nnc2ccccc2c1=O` (stereo partly shown), the “hERG current change (%, negative = inhibition) at 1uM” value stood at 12.9%. The result for `Cc1ccn2cc(CSc3ccccc3N)nc2c1` reads -9.77%; that for `CCOC(=O)c1ccc(NC(=O)COc2ccc(S(=O)(=O)NC(C)C)cc2)cc1`, 12.5%.

`COc1cc(CN2CCN(C(=O)CC(C)C)CC2)cc(OC)c1OC`: the “hERG current change (%, negative = inhibition) at 1uM” value is listed as -0.807%. The figure for `COc1ccccc1OCC(=O)Nc1ccc2c(c1)C(=O)N(CC1CCCO1)C2=O` (stereo not shown) is 3.21%; for `COc1ccc(N2CCN(C(=O)CCc3ccccc3OC)CC2)cc1` it is 7.73%; for `CCN(CC)C(=O)CSc1nc2cccnc2n1-c1ccccc1OC` it is 11.5%. The result for `Cc1ccccc1-c1nc(CS(=O)CC(=O)NCc2ccccc2)c(C)o1` (stereo not shown) reads 2.19%; that for `COc1cc(/C=N\NC(C)=O)ccc1OC/C=C/c1ccccc1`, 13.9%. The figure for `O=C(NC1CC1)C1=C[C@@H](c2coc3ccccc3c2=O)C[C@@H](OCCCCO)O1` is 9.99%; for `N#Cc1c(-c2cccs2)nc(SCC(=O)c2cccs2)[nH]c1=O` it is -2.12%. In the case of `CCCCn1c(N)c(N(CC(C)C)C(=O)C2CCN(C(=O)c3ccc(F)cc3)CC2)c(=O)[nH]c1=O`, the “hERG current change (%, negative = inhibition) at 1uM” value is reported as 0.272%.

Regarding `COC(CNS(=O)(=O)c1ccc(S(=O)(=O)N2CCCC2)cc1)OC`, the “hERG current change (%, negative = inhibition) at 1uM” value was -5.61%. Take `CCS(=O)(=O)NCc1csc(C)n1`: the “hERG current change (%, negative = inhibition) at 1uM” value was 8.06%. Regarding `O=C(CN(c1ccccc1F)S(=O)(=O)c1ccccc1)Nc1ccc2c(c1)OCCO2`, the “hERG current change (%, negative = inhibition) at 1uM” value was 15.2%. Consider `CCCCn1c(SCC(=O)Nc2cc(C)on2)nnc1-c1ccncc1`, for which the “hERG current change (%, negative = inhibition) at 1uM” value stood at 9.23%. The result for `CCc1cc2cc(C)c(C)cc2nc1SCC(=O)Nc1cc(C)on1` reads 9.93%; that for `COc1ccc(NC(C)=O)cc1NC(=O)c1cccc(S(=O)(=O)N2CCN(Cc3ccccc3)CC2)c1`, 7.45%.

As for `O=C(NCCc1ccccc1)c1ccc(NC2=NC3CS(=O)(=O)CC3S2)cc1` (stereo not shown), the “hERG current change (%, negative = inhibition) at 1uM” value is on record as 5.56%. On to `O=C(Nc1ccnn1C1CCN(Cc2cccc(OCCO)c2)CC1)c1cccc(F)c1`, for which the “hERG current change (%, negative = inhibition) at 1uM” value worked out at 9.06%. The result for `CN(C)c1cc[n+](CC(=O)Nc2ccccc2C(F)(F)F)cc1.[Cl-]` reads 11.6%; that for `O=C1CCCN1CCCNC(=S)Nc1ccc(F)c(Cl)c1`, 5.52%. The figure for `CN(C)c1cccc(C(=O)N(Cc2ccccc2)Cc2ccccc2)c1` is 8.83%.

For `COc1ccc(NC(=O)CC2C(=O)N(c3cccc(OC)c3)C(=O)N2Cc2ccco2)cc1` (stereo not shown), the “hERG current change (%, negative = inhibition) at 1uM” value was -4.4%. On to `CCN1C(=NCc2ccc(OC)cc2)N[C@@H](CCc2ccccc2)[C@H](C(=O)NCc2ccc(OC)cc2)[C@H]1C`, for which the “hERG current change (%, negative = inhibition) at 1uM” value is on record as -16.8%. The figure for `CSc1ccc(CNc2ccc(C)cc2)cc1` is 12.8%. In the case of `CNC(=O)N(O)C1N(C)C(=O)N(Cc2ccccc2)C1(C)C` (stereo not shown), the “hERG current change (%, negative = inhibition) at 1uM” value worked out at 3.57%. For `C/C(=N\NC(=O)c1cccs1)c1cccnc1`, the “hERG current change (%, negative = inhibition) at 1uM” value is 5.86%.

Regarding `COc1cccc(-c2cc(C(=O)N/N=C/c3ccco3)c3ccccc3n2)c1`, the “hERG current change (%, negative = inhibition) at 1uM” value is listed as 14%. For `O=c1ccc2ccc(O[C@@H]3O[C@H](CO[C@@H]4OC[C@](O)(CO)[C@H]4O)[C@@H](O)[C@H](O)[C@H]3O)cc2o1`, the “hERG current change (%, negative = inhibition) at 1uM” value stood at 15.2%. Turning to `Cc1cc(/C=C2/NC(=S)NC2=O)c(C)n1-c1cccnc1`, the “hERG current change (%, negative = inhibition) at 1uM” value is on record as 15.2%.

For `COCCNC(=S)N/N=C(\C)c1ccccc1OC`, the “hERG current change (%, negative = inhibition) at 1uM” value is reported as 9.12%. `O=C(c1cccc([N+](=O)[O-])c1)N1CCN(c2n[nH]c(=O)[nH]c2=O)CC1`: the “hERG current change (%, negative = inhibition) at 1uM” value was 7.2%. The result for `C[C@@H]1C[C@H](O)c2cc(Cl)ccc2N1` reads -1.49%; that for `COc1ccc(-c2cn[nH]c2-c2ccc(OCc3ccc([N+](=O)[O-])cc3)cc2O)cc1OC`, 2.71%.

For the compound `Cc1ccc(NC(=O)CC2S/C(=N/N=C3\CCCc4ccccc43)NC2=O)cc1` (stereo not shown), the “hERG current change (%, negative = inhibition) at 1uM” value is reported as 15.7%. The figure for `COc1ccc(-c2nn(-c3ccccc3)cc2/C=N/NC(=O)c2ccc3c(c2)OCO3)cc1` is 8.21%; for `O=C(COC(=O)C1CCN(S(=O)(=O)c2cccs2)CC1)c1ccc2c(c1)OCCO2` it is 13.7%. The result for `Cc1n[nH]c(=O)nc1NCC1CCCO1` (stereo not shown) reads -15.9%; that for `COc1ccc(NC(=O)Nc2cc(F)ccc2C)cc1`, 21.5%; that for `CN(C(=O)COC(=O)c1ccc(Cl)nc1)C1CCS(=O)(=O)C1` (stereo not shown), 3.72%.

Turning to `Cc1cccnc1CN1CCN(C(=O)c2cc(COc3ccc4ncccc4c3)on2)CC1`, the “hERG current change (%, negative = inhibition) at 1uM” value is 16.1%. The figure for `O=C(CN(CCO)c1ccccc1)Nc1ccc(Cl)c(S(=O)(=O)N2CCOCC2)c1` is 5.98%; for `COc1cc(C2Nc3cccc4cccc(c34)N2)ccc1OC(C)=O` it is 15%.

Turning to `NNC(=O)CCC(=O)Nc1ccccc1`, the “hERG current change (%, negative = inhibition) at 1uM” value is recorded as 11.1%. For the compound `COc1ccc(C(=O)Nc2cc(C)nn2-c2nc3ccccc3[nH]2)c(OC)c1`, the “hERG current change (%, negative = inhibition) at 1uM” value is 5.37%. Consider `O=C(NNC(=S)NC(=O)c1cccnc1)c1ccc(F)cc1`, for which the “hERG current change (%, negative = inhibition) at 1uM” value amounted to 12.6%. As for `O=Cc1cccn1-c1c(C(=O)O)cnn1-c1ccccc1`, the “hERG current change (%, negative = inhibition) at 1uM” value is 27.8%. The result for `COc1cccc2c(=O)n(CC(=O)Nc3ccc(F)cc3F)ccc12` reads 8.04%. The figure for `CCOC(=O)N=Nc1c(O)n(CC)c2ccccc12` is 8.82%. In the case of `Cc1cc2c(c(SCC(=O)N(C)c3ccccc3)n1)C(=O)OC2`, the “hERG current change (%, negative = inhibition) at 1uM” value amounted to 14.6%. Turning to `CSc1nnc(-c2ccccc2)o1`, the “hERG current change (%, negative = inhibition) at 1uM” value is given as -2.44%. With `CSCC[C@H](NC(=O)C1CCC(CNC(=O)[C@@H]2CCCN2)CC1)C(=O)O.Cl` (stereo partly shown), the “hERG current change (%, negative = inhibition) at 1uM” value was 3.34%. In the case of `COc1ccc(C(=O)NNC2CC(=O)N(Cc3ccccc3)C2=O)cc1OC` (stereo not shown), the “hERG current change (%, negative = inhibition) at 1uM” value worked out at 1.56%. On to `COc1ccc(CCN(C)C(=O)c2c(C)nn(-c3ccccc3)c2C)cc1OC`, for which the “hERG current change (%, negative = inhibition) at 1uM” value worked out at 13.9%. The result for `Cc1nnc(C)n1/N=C/c1ccccn1` reads -14.6%. `COc1ccccc1CNC(=O)COC(=O)c1cc(=O)[nH]c2ccccc12`: the “hERG current change (%, negative = inhibition) at 1uM” value worked out at 4.78%. Turning to `CC(=O)c1c(C)nc(-c2ccc(OCC(=O)Nc3ccccc3)cc2)n1O`, the “hERG current change (%, negative = inhibition) at 1uM” value is recorded as 19.2%. `C=CCn1c(SCC(=O)N2CCOCC2)nc(O)c(Cc2ccccc2)c1=O`: the “hERG current change (%, negative = inhibition) at 1uM” value was 11.8%. The result for `O=C(CSc1nnc(COc2ccc(Cl)cc2)o1)OC1CCCCC1` reads 0.966%.

Take `Cc1ccc(OCC(=O)N2CCCCCC2)c(C)c1`: the “hERG current change (%, negative = inhibition) at 1uM” value was found to be 8.22%. Consider `COc1ccc(N2CCN(C(CNS(=O)(=O)c3cc(F)ccc3F)c3cccnc3)CC2)cc1` (stereo not shown), for which the “hERG current change (%, negative = inhibition) at 1uM” value is given as -18.7%. `O=C(NCc1ccco1)c1cc(S(=O)(=O)N2CCOCC2)ccc1Cl`: the “hERG current change (%, negative = inhibition) at 1uM” value is on record as -14.1%. On to `O=C(NCc1ccccn1)c1ccc(NC(=O)c2ccco2)cc1`, for which the “hERG current change (%, negative = inhibition) at 1uM” value was 0.77%.

Consider `CSc1ccc(CN2CCN(C3CCCC3)C(CCO)C2)cc1` (stereo not shown), for which the “hERG current change (%, negative = inhibition) at 1uM” value was -8.56%. With `COc1ccc(CCNc2ccc(S(=O)(=O)N3CCCC3)cc2[N+](=O)[O-])cc1`, the “hERG current change (%, negative = inhibition) at 1uM” value is given as 8.04%. Regarding `Cc1nc(C(=O)NNC(=O)c2ccc(C(F)(F)F)cc2)cs1`, the “hERG current change (%, negative = inhibition) at 1uM” value is 13.1%. The figure for `CC(C)CC(=O)NNC(=S)Nc1ccc(S(N)(=O)=O)cc1` is 16.1%; for `CC(C)(Sc1cc(C(C)(C)C)c(O)c(C(C)(C)C)c1)Sc1cc(C(C)(C)C)c(O)c(C(C)(C)C)c1` it is 18.8%. As to `COc1cccc(CN(C)CC(O)COC(c2ccccc2)c2ccccc2C)c1` (stereo not shown), the “hERG current change (%, negative = inhibition) at 1uM” value is given as -8.56%. In the case of `NC(=O)CSc1ncc(-c2ccccc2)[nH]1`, the “hERG current change (%, negative = inhibition) at 1uM” value is on record as 11.4%.

`CC(=O)Nc1ccc(S(=O)(=O)NCCCN2CCN(Cc3ccccc3)CC2)cc1Cl`: the “hERG current change (%, negative = inhibition) at 1uM” value is listed as -5.81%. As for `CC(=O)Nc1ccc(Nc2nc(C(F)(F)F)nc3c2nnn3Cc2ccccc2Cl)cc1`, the “hERG current change (%, negative = inhibition) at 1uM” value came out at 14.1%. The result for `CC(=O)c1sc(NC(=O)c2cccc(C)c2)nc1C` reads 14.7%; that for `COC(=O)c1c[nH]n2c(=O)c(Cc3ccc(F)cc3Cl)c(C)nc12`, 7.15%; that for `Nc1nnnn1/N=C/c1ccc(N2CCCCC2)c([N+](=O)[O-])c1`, 14.8%. Consider `CCOC(=O)C1=C(COC(=O)COc2ccc(C(C)=O)cc2)NC(=O)NC1C` (stereo not shown), for which the “hERG current change (%, negative = inhibition) at 1uM” value is reported as 5.59%.

In the case of `CCOC(=O)/C(C#N)=C/c1cn(CCC(=O)O)nc1-c1ccc(F)cc1`, the “hERG current change (%, negative = inhibition) at 1uM” value turned out to be 8.06%. Regarding `CN(Cc1ccc(C(F)(F)F)cc1)C(=O)c1ccc2ccccc2n1`, the “hERG current change (%, negative = inhibition) at 1uM” value was found to be 12.5%. As for `O=C(O)Cc1c(O)ccc2ccccc12`, the “hERG current change (%, negative = inhibition) at 1uM” value is reported as 11.7%. The result for `CN(Cc1ccc(F)cc1)C(=O)CNC(=O)c1cccs1` reads 20.8%; that for `CC(=O)Nc1ccc(NC(=O)C(Sc2ccccc2)c2ccccc2)cc1` (stereo not shown), 18.7%; that for `CC(C)c1ccc(NC(=O)NCc2ccccn2)cc1`, 9.47%. Consider `N#Cc1c(NC(=O)C2CC(Cl)=CCC2C(=O)O)sc2c1CCCCC2` (stereo not shown), for which the “hERG current change (%, negative = inhibition) at 1uM” value is 2.73%. For `S=C1NCN(Cc2ccccc2)CN1`, the “hERG current change (%, negative = inhibition) at 1uM” value was found to be 11.8%. For `COc1ccc(C(=O)COC(=O)c2ccc(NC(C)=O)cc2)cc1[N+](=O)[O-]`, the “hERG current change (%, negative = inhibition) at 1uM” value was -1.33%. The result for `c1ccc(C(Cc2nc(-c3cccnc3)no2)c2ccccc2)cc1` reads 13.2%; that for `CC1CC2(C)CC(C)C1(COC(=O)Nc1ccccc1)CO2` (stereo not shown), 12.6%.
